In all, about 310,000 compounds went through this assay and about 11,000 (3.5%) were called active. The shares of active, inactive and inconclusive entries below differ from those in the screen. Calls come from the whole dose curve; as a rule, active = well fitted inhibition curve with a large enough effect; inconclusive = small, poorly fitted or top-dose-only effect, or effect the other way; inactive = flat fitted curve, though single readings scatter. No potency is given beside an inconclusive call; the fits are too rough.
Experiment: VP16 counterscreen qHTS for inhibitors of ROR gamma transcriptional activity;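 note: Gal4-VP16 expression switched on by copper sulfate through the metallothionein promoter; nearly all actives have a fitted effect of over 50% in size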
Details: Drosophila S2 Gal4-VP16 UAS-luciferase, luminescence, 20 h; activity, negative = inhibition: at 53.6 µM (top of the series)
% is set by controls: 0 for no effect and ±100 for the full control effect; potency is the fitted concentration of half-maximal effect; tags give direction and shape of the fitted curve.

| Compound | activity, negative = inhibition | Potency |
| --- | --- | --- |
| CCCCC(=O)N/N=C/c1ccc(-c2ccc([N+](=O)[O-])cc2)o1 | inactive: 10.4% | – |
| COc1ccc(NC(=O)c2ccco2)cc1NC(=O)c1ccccc1F | inactive: 4.33% | – |
| Cc1ccc(Nc2nc(CSc3nnc(-c4cccnc4)n3-c3ccccc3C)cs2)cc1 | – | inconclusive [inhibitor, single point] |
| CCCc1cc(=O)[nH]c(-n2[nH]c3c(c2=O)CCCC3)n1 | – | active: 3.55 µM |
| O=C(CSCc1ccccc1)N/N=C/c1cc2c(cc1Br)OCO2 | – | active: 11.2 µM |
| O=C(Nc1nc2c(s1)CCCC2)c1cccc(S(=O)(=O)N2CCCc3ccccc32)c1 | – | active: 12.6 µM |
| CCCC(=O)NC(=S)Nc1ccc(N2CCN(C(=O)c3cccs3)CC2)cc1 | – | inconclusive [inhibitor, single point] |
| Nc1nnc(SCCCOc2ccc(F)cc2)s1 | – | inconclusive [inhibitor, single point] |
| CCN(Cc1ccccc1)c1ccc(/C=N/NC(=S)NC(C)C)cc1 | – | active: 1.26 µM |
| Cc1o[nH]c(=O)c1CC[C@H](N)C(=O)O | inactive: 4.12% | – |
| COc1cc(OC)c2c(=O)c(O)c(-c3ccc(OC)c(OC)c3)oc2c1 | – | inconclusive [inhibitor, single point] |
| CCn1c(C)c(C(=O)c2ccccc2)c(C#N)c1C(=O)O | – | inconclusive [activator, single point] |
| CC(=O)N1CCN(c2ccccc2NC(=O)c2cc3ccccc3o2)CC1 | inactive: 11.6% | – |
| O=C(N/N=C/c1ccccc1O)/C(=C/c1ccccc1)CCO | – | active: 1.12 µM |
| COC(=O)c1sc(-c2ccc(C(C)(C)C)cc2)cc1NC(=O)/C=C/C(=O)O | – | inconclusive [inhibitor, partial curve, poor fit] |
| CCOC(=O)C1=C(CNCc2ccccc2Cl)NC(=O)NC1c1cccc([N+](=O)[O-])c1 (centres undefined) | inactive: -13.8% | – |
| CCOc1ccc(CCN2CN(CC)CNC2=S)cc1OCC | – | inconclusive [inhibitor, single point] |
| O=C(/C=C/c1ccccc1)N1c2ccccc2Sc2ccc(C(F)(F)F)cc21 | – | inconclusive [inhibitor, partial curve] |
| Cc1cccc(NC(=S)N2CCN(c3ccc(F)cc3)CC2)c1 | – | inconclusive [inhibitor, single point] |
| CCN(C(=S)NC(=O)C1CC1)c1ccccc1 | – | inconclusive [inhibitor, single point] |
| NC(=O)CC(NC(=O)c1ccc(Br)cc1)c1ccc(N2CCC(Cc3ccccc3)CC2)c([N+](=O)[O-])c1 (centres undefined) | – | active: 20 µM |
| O=C(NNc1ccccc1[N+](=O)[O-])Nc1cccc(Cl)c1 | – | inconclusive [inhibitor, single point] |
| COc1ccc2oc(-c3cccc(NC(=O)CSc4ccc(Cl)cc4)c3)nc2c1 | – | inconclusive [inhibitor, single point] |
| CCc1ccc(Nc2nc3ccccc3c(=O)s2)cc1 | – | active: 1.41 µM |
| CCCn1c(SCC(=O)NCCc2ccccc2)nnc1-c1ccco1 | – | inconclusive [activator, single point] |

| Compound | activity, negative = inhibition | Potency |
| --- | --- | --- |
| S=C(c1cn(CCOc2ccccc2)c2ccccc12)N1CCCC1 | inactive: -1.78% [at 0.365 µM] | – |
| CCOC(=O)c1c(NC(=O)CCC(=O)N(CC)CC)sc2c1CC(C)(C)OC2 | – | inconclusive [inhibitor, single point] |
| CC(C)CNC(=S)Nc1ccc(Oc2ccccc2)cc1 | – | active: 3.98 µM |
| O=C1CN(C(=O)c2ccccc2[N+](=O)[O-])C(c2ccccc2)c2cc(Br)ccc2N1 (centres undefined) | – | inconclusive [inhibitor, single point] |
| Cc1cc(N2C(=O)C(O)=C(C(=O)c3cc4ccccc4o3)C2c2cccc(Cl)c2)no1 (centres undefined) | – | inconclusive [inhibitor, single point] |
| COc1ccc(C(=O)CC(=O)C(=O)Nc2ccccc2Cl)cc1 | – | active: 3.16 µM |
| Cc1ccc(C2C(C(N)=S)=C(N)OC3=C2C(=O)CC(C)(C)C3)cc1 (centres undefined) | – | inconclusive [inhibitor, single point] |
| CCc1ccc(-c2nn(-c3ccccc3)cc2CSC(=N)N)cc1 | – | active: 20 µM |
| CN(C)c1oc(/C=C/c2cccs2)nc1S(=O)(=O)c1ccccc1 | inactive: 7.76% | – |
| COc1cc2nc(SCc3ccc(Cl)cc3Cl)n(Cc3cccs3)c(=N)c2cc1OC | – | active: 15.8 µM |
| COc1cccc(NC(=O)CN(C)CC(=O)Nc2ccc(C)c([N+](=O)[O-])c2)c1 | – | inconclusive [inhibitor, single point] |
| Cc1ccc(C)c(/C=N/n2cc(-c3ccccc3)[nH]c2=S)c1 | – | inconclusive [inhibitor, single point] |
| COc1ccccc1/C=C/C=N/n1c(-c2cc(C)[nH]n2)n[nH]c1=S | – | inconclusive [inhibitor, partial curve, poor fit] |
| Cc1nc(C)c(-c2csc(Nc3ccccn3)n2)s1 | inactive: -5.57% | – |
| CCOc1ccc(Br)cc1C(=O)Nc1ccc(C(=O)NCC(C)C)cc1 | – | inconclusive [inhibitor, single point] |
| CCCCCCCCCCOC(=O)Cn1c(COc2ccc(OC)cc2)[n+](C)c2ccccc21 | – | active: 6.31 µM |
| COc1cc(OC)c2c(-c3ccccc3)cc(=O)oc2c1C(CCN1CCCCC1)c1ccc2c(c1)OCO2 (centres undefined) | – | inconclusive [inhibitor, partial curve] |
| S=C(Nc1ccc(Cl)cc1)NN1CCOCC1 | – | inconclusive [inhibitor, single point] |
| COc1ccc(NC(=O)Nc2ccc(C)cc2OC(F)F)cc1OC | – | inconclusive [inhibitor, single point] |
| Cc1ccc(-c2ccc(/C=C3\C(=O)ON=C3c3ccccc3)o2)c([N+](=O)[O-])c1 | – | active: 15.8 µM |
| COc1cc(OC)c2ccc(=O)oc2c1C(CCN1CCCC1)c1ccc(N(C)C)cc1 (centres undefined) | – | inactive |
| COc1ccc(S(=O)(=O)c2nnn(-c3ccccc3Cl)c2N)cc1 | inactive: -3.87% | – |
| c1ccc2sc(N3CCOCC3)nc2c1 | – | inconclusive [inhibitor, single point] |
| COc1cc(NC(=O)CCC2CCCC2)cc(-n2cnnn2)c1 | inactive: -2.64% | – |
| O=C1CC(N2CCN(c3ccccc3O)CC2)C(=O)N1Cc1ccccc1 (centres undefined) | inactive: -0.617% | – |

| Compound | activity, negative = inhibition | Potency |
| --- | --- | --- |
| CCCOc1ccc(CSc2nc3ccccc3[nH]2)cc1 | – | active: 6.31 µM |
| Nc1c(NCCC2=CCCCC2)c(=O)[nH]c(=O)n1Cc1ccccc1 | – | inconclusive [inhibitor, partial curve] |
| CC(=O)Nc1nnc(C2=COCCO2)o1 | inactive: 0.367% | – |
| Cc1ccccc1C(=O)O/N=C/c1c(N2CCOCC2)n(C)c2ccccc12 | – | active: 2.82 µM |
| Cc1ccc(Cl)cc1N1CCN(S(=O)(=O)c2ccc3c(c2)NC(=O)C(C)C(=O)N3)CC1 (centres undefined) | – | inconclusive [inhibitor, single point] |
| CCCC(=O)N1CCN(c2ccc(NC(=O)c3cc4ccccc4o3)cc2Cl)CC1 | – | inconclusive [inhibitor, full curve] |
| CCCCCCCC(=O)OC[C@H](CO)OC(=O)CCCCCCC | inactive: -1.75% | – |
| Cc1cc(C)n(-c2ccc(C(=O)N3CCC(CO)(Cc4ccccc4)CC3)cc2)n1 | – | inconclusive [inhibitor, single point] |
| CCCC(=O)NC(C)C(c1cccs1)N1CCN(C)CC1 (centres undefined) | inactive: -6.13% | – |
| O=C(/C=C/c1ccccc1)OC1CC(O)C2(O)C=CO[C@@H](OC3OC(CO)C(O)C(O)C3O)C12 (some centres undefined) | inactive: -13.2% | – |
| CC1=C(C(=O)N2CCCC(N3CCN(c4cccc(C(F)(F)F)c4)CC3)C2)OCCO1 (centres undefined) | inactive: -3.24% | – |
| Cc1c(CCC(=O)NCCCn2ccnc2)c(=O)oc2cc3occ(C(C)(C)C)c3cc12 | – | inconclusive [inhibitor, single point] |
| C=CCn1c(-c2csc(-c3ccc(Cl)cc3)n2)n[nH]c1=S | – | active: 1.78 µM |
| CCN1CCC(CNCc2cn(-c3ccc(OC)cc3)nc2-c2ccccc2Cl)C1 (centres undefined) | – | inconclusive [inhibitor, single point] |
| Cc1cccc(N2CCN(C(=O)c3ccc(N4CCCC4=O)cc3)CC2)c1C | inactive: -1.55% | – |
| CCOCCCNc1ncnc2c1[nH]c1ccccc12 | – | inconclusive [inhibitor, single point] |
| O=C(O)c1cccc(NS(=O)(=O)c2ccc(C3CCCCC3)cc2)c1 | – | inconclusive [inhibitor, partial curve] |
| CN1CCN(c2ccc(NC(=O)c3ccc(Cl)cc3Cl)cc2)CC1 | inactive: 10.2% | – |
| CCCOc1cccc(C(=O)NC(=S)Nc2cccc(NC(=O)c3ccccc3Cl)c2)c1 | – | inconclusive [inhibitor, partial curve, poor fit] |
| O=C(Nc1nc2ccccc2s1)c1cc(-c2ccccc2)nn1-c1ccccc1 | – | inconclusive [inhibitor, single point] |
| O=c1c2ccccc2c(=O)n2n1Cc1ccccc1C2 | inactive: 24.2% | – |
| Cc1ccccc1-c1nc2ccc(Cl)cc2c(=O)n1O | – | inconclusive [inhibitor, single point] |
| O=C(N/N=C/c1ccccn1)c1cc(-c2ccc3ccccc3c2)n[nH]1 | – | active: 15.8 µM |
| O=C(COC(=O)C1CCN(S(=O)(=O)c2cccc3cccnc23)CC1)c1ccc([N+](=O)[O-])cc1 | – | inconclusive [activator, single point] |

— PubChem BioAssay AID2546 (National Center for Advancing Translational Sciences (NCATS), 2010)
